Assay results from the supplement of paper PMC11417369.
The list shows a part of the results.

Test system: PF3D7_0420300 AP2 domain 1 (GST-tagged)
Assay: gcPBM binding intensity (ln(normalized median fluorescence intensity)); higher = stronger DNA binding
In short: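 Probes on an Agilent 4 × 180k array were primer-extended, double-stranded and 36 bp long, taken from intergenic genomic regions, with negative controls added. GST-tagged P. falciparum DNA-binding domains from E. coli, about 25 μg on average, were applied to the array for 1 h in 1× PBS containing 1% milk, 0.2 mg/ml BSA, 0.5% salmon testes DNA and 0.03% Triton X-100. Binding intensity, obtained after Alexa488 anti-GST antibody detection and a 488 nm scan, is the highest Masliner-normalised natural-log median intensity across replicate spots of either probe orientation.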

Row | Sequence | gcPBM binding intensity (ln)
1 | ACATATATGGAGCTTATACACACTTTTATATTTTAA [CACACA_site3854] | 9.35
2 | TTTTAAATATGCCATACACACTACTCTATAATAAAT [CACACA_site6987] | 9.43
3 | TTATCATATAATTATTGTACTAAAAAAAAAGCGAGT [XGTACX_site3086] | 9.31
4 | TATATATATATGTGTACACATGTCGCATTTTTTTAT [CACACA_site4648] | 9.62
5 | GATATTATAAAATAAAAATAAATCATTTCTATTCAT [CACACA_negctrl_site334] | 8.92
6 | TTATGTGTATAGGTTTGTACATAAAATGATGTATAG [XGTACX_site1401] | 9.18
7 | TCATGGAATATTTAAAGTACAAAAAGTGTTCTTTAC [XGTACX_site715] | 8.99
8 | TAGTCATATATATATGTACACACATATATATATTTA [CACACA_site8413] | 9.38
9 | ATTTATTTTGTTGTTGTTTTTATTTGATTGTTTTAT [CACACA_negctrl_site1275] | 9.84
10 | TTATGGTGCAACATTATGCACACCGTTAAATAACTA [CACACA_site3846] | 9.08
11 | ACAAAATTATGTAGATGTACAGACATAGAAAGAGAT [XGTACX_site3096] | 9.71
12 | ATTTATGAAAAATGTACACACATCAAATGCTTATAT [CACACA_site4068] | 9.42
13 | GTTTGAATGGCGCACTGTACACATATATACATATAG [XGTACX_site8619] | 9.6
14 | TAAAAGTTCACCTGTACACACATATAAATATGTACA [CACACA_site6901] | 9.36
15 | AACAGACGAAGACACACACACATATATATATATATA [CACACA_site1020] | 9.73
16 | CGTTTTCTATATCATTGTACATATTCATGTGTAAAT [XGTACX_site2741] | 9.24
17 | AAAATTAACCGTAACACACACACATATAAATATGTA [CACACA_site7791] | 9.95
18 | TTGTTTAAGTCACGAACACACATATATCATCAATTT [CACACA_site986] | 9.42
19 | ATTAATAAATTCAATTGTACTTGTTTATACATAAAA [XGTACX_site3733] | 9.05
20 | TTATTTTATTTTTGTGCACACTGATAAATTGAAAAG [CACACA_site2949] | 9.12
21 | TATTAATTTAAATGGGTGCAAAACCTATATAAATAT | 9.23
22 | ATTTATGTTAATAAGTGTACAATAAATTTTTTTTAT [XGTACX_site7658] | 9.07
23 | AACATATATAAATACACACACATATATATATGAAAT [CACACA_site4312] | 9.98

Row | Sequence | gcPBM binding intensity (ln)
24 | ATAACAAAAAAAAAGGTGCTACAAAATGAATAAAAA [GTGCAC_site9659] | 9.65
25 | TACATATATATATATGTACACACATTAATAAAAAAA [CACACA_site9058] | 9.46
26 | ATATTTTATTTTAATACACACAAGTTATATAACCAC [CACACA_site6508] | 9.5
27 | AATATAAATAATTATACACACTTAATATATATATAC [CACACA_site5533] | 9.55
28 | ATATTTAGGAAAAATAGTACACATTTAAATAATAAT [XGTACX_site7989] | 9.34
29 | TAGGTGCCTTTTTTCACACACATGTCAACTAAATAT [CACACA_site2656] | 9.65
30 | AAATATATATATATATATATAAATATATACATATAT [TGCATGCA_negctrl_site517] | 9.01
31 | CTTTAAATTAATAAAAGTACATTATTTATATATTTT [XGTACX_site4808] | 9.02
32 | TGTATAAATATATATACACACATATTTATATATATA [CACACA_site755] | 9.31
33 | TATATATGTATCATTACACACATGTATACTTATTTG [CACACA_site4138] | 9.71
34 | ATATATGTGCCCATATATATATATATAAATATATGT [GTGCAC_negctrl_site226] | 9.23
35 | TACATTTGTATAAATAGTACGCGAAAACAAAAAAAA [XGTACX_site6246] | 9.49
36 | TAAAAAAAAACAGAAACACACATTATTCATATATAT [CACACA_site2049] | 9.77
37 | AAAATATTTATGTATGCATGTTGTAATATTTCTTTA [TGCATGCA_site296] | 9.28
38 | ATTTCCCCTTTTTATTGTACATTTTTATTTGTTACT [XGTACX_site4845] | 9.94
39 | TATGCTATATATTTAGTGCATATATATAACTTTTAT [GTGCAC_site9902] | 9.16
40 | AATATATATTTATAAACACACACCAAAATTTGTGCT [CACACA_site3091] | 9.46
41 | ACATTTTGTGTTTTAGCACACAATTTTTCAGAATAT [CACACA_site2961] | 9.36
42 | TATTAGCATGTTATTACACACAATATAAGATATATA [CACACA_site6775] | 9.32
43 | ATATTATAATATTTATGTACATATATATAATATATA [XGTACX_site1633] | 9.12
44 | TTTTCTACATCTTGTTGTACGAAAAATAAAAAAAAT [XGTACX_site4620] | 8.97
45 | AGTACGTAAATTATAATACACACTATAGGATATTCT [CACACA_site2559] | 9.51
